Measurements as given in article PMC6891891.
No constants are given. Whether binding was seen depends on the method and setting. Some results given as binding are weak or reduced against the parent protein; the word gives no strength. Tags and fused reporters may be left off the sequences shown.

What was measured:
Assay in all cases: two-hybrid; directed Y2H: pGAD-C1 (AD) and pGBD-C1 (BD) fusions cotransformed into the Y2HGold strain; HIS3 reporter, 8 mM 3-AT added in Figure 4D
[1] = target: T1, SUMO ligase Siz2, Y2H fusion (S. cerevisiae) (UniProt Q12216)
T1 sequence: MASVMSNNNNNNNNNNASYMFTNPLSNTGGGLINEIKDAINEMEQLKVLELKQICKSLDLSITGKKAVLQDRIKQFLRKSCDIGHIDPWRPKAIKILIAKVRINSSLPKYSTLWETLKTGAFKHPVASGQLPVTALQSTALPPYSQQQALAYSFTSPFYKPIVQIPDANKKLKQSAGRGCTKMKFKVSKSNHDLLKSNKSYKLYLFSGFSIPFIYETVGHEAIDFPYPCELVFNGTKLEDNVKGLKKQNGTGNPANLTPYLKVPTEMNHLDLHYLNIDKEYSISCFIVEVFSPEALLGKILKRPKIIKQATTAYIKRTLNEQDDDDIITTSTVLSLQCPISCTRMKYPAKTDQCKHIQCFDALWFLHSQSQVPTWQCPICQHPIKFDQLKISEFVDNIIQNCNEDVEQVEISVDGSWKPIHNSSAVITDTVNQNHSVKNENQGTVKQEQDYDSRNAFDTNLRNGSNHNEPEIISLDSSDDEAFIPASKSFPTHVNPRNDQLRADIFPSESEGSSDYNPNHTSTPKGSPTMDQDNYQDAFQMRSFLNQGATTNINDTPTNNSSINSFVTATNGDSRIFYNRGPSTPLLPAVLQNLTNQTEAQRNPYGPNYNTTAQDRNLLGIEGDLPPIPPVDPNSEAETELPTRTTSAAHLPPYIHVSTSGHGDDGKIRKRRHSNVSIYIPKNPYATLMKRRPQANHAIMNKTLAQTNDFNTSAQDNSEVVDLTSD

[2] = target: T2, N-terminally truncated, catalytically inactive Ulp2 (Ulp2CD-N400), Y2H fusion (S. cerevisiae) (UniProt P40537)
T2 sequence: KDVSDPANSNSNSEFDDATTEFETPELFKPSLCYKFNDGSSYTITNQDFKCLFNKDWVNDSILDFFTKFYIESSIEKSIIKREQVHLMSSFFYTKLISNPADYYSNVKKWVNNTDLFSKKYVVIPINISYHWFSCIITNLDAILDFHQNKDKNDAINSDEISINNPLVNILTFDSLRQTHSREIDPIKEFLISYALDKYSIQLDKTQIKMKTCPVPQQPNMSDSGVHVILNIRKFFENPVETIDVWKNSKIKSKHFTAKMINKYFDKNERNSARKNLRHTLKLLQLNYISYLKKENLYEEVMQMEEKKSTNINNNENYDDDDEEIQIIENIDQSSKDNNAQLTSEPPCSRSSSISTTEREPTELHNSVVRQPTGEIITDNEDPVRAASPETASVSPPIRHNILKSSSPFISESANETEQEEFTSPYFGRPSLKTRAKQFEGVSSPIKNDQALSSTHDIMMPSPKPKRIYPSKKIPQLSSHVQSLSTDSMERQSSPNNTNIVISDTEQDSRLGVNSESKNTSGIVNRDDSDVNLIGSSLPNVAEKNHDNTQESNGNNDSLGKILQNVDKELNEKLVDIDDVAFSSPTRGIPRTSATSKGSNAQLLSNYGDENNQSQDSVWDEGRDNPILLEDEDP

[3] = target: T3, catalytically dead Ulp2 (Ulp2-C624S), AD-fusion and BD-fusion for Y2H (S. cerevisiae) (UniProt P40537)
T3 sequence: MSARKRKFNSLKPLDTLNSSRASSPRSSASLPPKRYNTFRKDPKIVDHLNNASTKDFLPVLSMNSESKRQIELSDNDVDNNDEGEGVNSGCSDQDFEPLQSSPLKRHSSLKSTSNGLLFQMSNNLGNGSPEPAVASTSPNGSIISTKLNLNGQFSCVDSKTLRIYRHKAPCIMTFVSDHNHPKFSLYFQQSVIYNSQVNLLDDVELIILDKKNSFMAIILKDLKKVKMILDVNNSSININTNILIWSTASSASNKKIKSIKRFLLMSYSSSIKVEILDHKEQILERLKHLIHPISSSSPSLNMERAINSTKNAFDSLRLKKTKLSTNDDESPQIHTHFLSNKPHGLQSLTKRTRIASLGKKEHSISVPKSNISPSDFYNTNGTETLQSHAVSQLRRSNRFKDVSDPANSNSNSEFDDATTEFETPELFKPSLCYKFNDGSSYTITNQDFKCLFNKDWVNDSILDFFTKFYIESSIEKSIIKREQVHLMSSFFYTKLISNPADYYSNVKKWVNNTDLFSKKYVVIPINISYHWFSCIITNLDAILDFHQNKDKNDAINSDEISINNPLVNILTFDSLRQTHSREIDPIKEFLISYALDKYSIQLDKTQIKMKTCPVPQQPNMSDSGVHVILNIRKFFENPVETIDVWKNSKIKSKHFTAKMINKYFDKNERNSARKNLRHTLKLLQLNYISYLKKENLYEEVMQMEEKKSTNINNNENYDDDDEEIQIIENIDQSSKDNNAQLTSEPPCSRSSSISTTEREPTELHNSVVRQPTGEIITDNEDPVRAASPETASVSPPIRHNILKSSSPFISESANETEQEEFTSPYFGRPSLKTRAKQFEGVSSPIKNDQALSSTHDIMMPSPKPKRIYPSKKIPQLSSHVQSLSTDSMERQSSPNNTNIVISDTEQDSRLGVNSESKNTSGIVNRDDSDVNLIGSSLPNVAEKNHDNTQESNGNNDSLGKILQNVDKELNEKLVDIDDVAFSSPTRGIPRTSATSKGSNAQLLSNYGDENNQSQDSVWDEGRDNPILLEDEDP

binding [1]: binds
binding [2]: no binding
binding [3]: binds
B1: Dbf4, AD-fusion and BD-fusion for Y2H (protein, UniProt P32325 1-704)
chain: MVSPTKMIIRSPLKETDTNLKHNNGIAASTTAAGHLNVFSNDNNCNNNNTTESFPKKRSLERLELQQQQHLHEKKRARIERARSIEGAVQVSKGTGLKNVEPRVTPKELLEWQTNWKKIMKRDSRIYFDITDDVEMNTYNKSKMDKRRDLLKRGFLTLGAQITQFFDTTVTIVITRRSVENIYLLKDTDILSRAKKNYMKVWSYEKAARFLKNLDVDLDHLSKTKSASLAAPTLSNLLHNEKLYGPTDRDPRTKRDDIHYFKYPHVYLYDLWQTWAPIITLEWKPQELTNLDELPYPILKIGSFGRCPFIGDRNYDESSYKRVVKRYSRDKANKKYALQLRALFQYHADTLLNTSSVNDQTKNLIFIPHTCNDSTKSFKKWMQEKAKNFEKTELKKTDDSAVQDVRNEHADQTDEKNSILLNETETKEPPLKEEKENKQSIAEESNKYPQRKELAATPKLNHPVLATFARQETEEVPDDLCTLKTKSRQAFEIKASGAHQSNDVATSFGNGLGPTRASVMSKNMKSLSRLMVDRKLGVKQTNGNNKNYTATIATTAETSKENRHRLDFNALKKDEAPSKETGKDSAVHLETNRKPQNFPKVATKSVSADSKVHNDIKITTTESPTASKKSTSTNVTLHFNAQTAQTAQPVKKETVKNSGYCENCRVKYESLEQHIVSEKHLSFAENDLNFEAIDSLIENLRFQI
